This is one part of the list. At the low end of the ranking the order means little. Measured with an extract: partners may take part in the binding.
Target: T1, HNF4alpha8 (COS-7 nuclear extract) (UniProt P41235-5)
T1 sequence: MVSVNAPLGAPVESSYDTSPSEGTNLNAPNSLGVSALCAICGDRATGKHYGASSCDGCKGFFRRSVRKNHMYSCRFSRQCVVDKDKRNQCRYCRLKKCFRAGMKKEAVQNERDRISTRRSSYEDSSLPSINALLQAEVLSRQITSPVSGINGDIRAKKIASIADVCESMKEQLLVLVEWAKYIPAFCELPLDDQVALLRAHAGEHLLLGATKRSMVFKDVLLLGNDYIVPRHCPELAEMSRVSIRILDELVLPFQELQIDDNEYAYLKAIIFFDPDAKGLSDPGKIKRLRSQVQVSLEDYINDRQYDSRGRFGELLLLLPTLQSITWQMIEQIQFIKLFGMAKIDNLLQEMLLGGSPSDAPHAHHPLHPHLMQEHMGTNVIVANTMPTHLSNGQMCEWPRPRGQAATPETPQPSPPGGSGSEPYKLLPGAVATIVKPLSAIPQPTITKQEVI
Assay: protein-binding microarray
Details: COS-7 nuclear extract on double-stranded Agilent 4x180k PBM; binding buffer, salt, pH and temperature not given; high values mean tight binding; double strand, one strand shown; sequences stand for … in …GCCTAGGGAGATTAGAGTATCGGTCGA

Sequence	binding signal (log2 normalized intensity)
GGCGCGCGGGCCGGGAGGGGGACGCTTTCT	-1.29
AATGTGATAGACAGGATGCCTGAGTAATTA	-0.196
CAAACTTCTCCACTCTTCATAATTACCATT	-0.446
TCTGAGGGCCAGCAGTGCCCAAAGCCCAAG	-1.26
CATTCCATTACTGCAGAGGCTGGTTCACAC	1.08
TACAGAGGCTCTGAGAGTCTCAGTGACTCA	-1.24
CTGTTATCAGAGCTGGAGGAGACCTTTGGA	6.18
CCAGGTGTAGATAAACTGGAAAGGGCTTCA	-1.32
TTGTTGACATCTGCTTCCAAAGAGCTCAAC	-1.24
GTTCTGGACTTCTCTGCCCTCTTCCCTCTA	2.65
AAAGGTCTGCTGTACATATTTGCCAAGTGA	0.204
AGTTGGTGAGAACAGAGTCTCCGAGGAACC	-1.35
CAAAGGTCAGGACAAGGCTCTGGTGGGGAA	2.94
CTTCCTGGCCCTAGCTGGGTTTTTCAAAGG	1.17
GGGATGTTTGGCAGCTGAGGATTGTCAGGC	-0.398
TTACAAAGGTCACACACCTGTGCAAACATT	1.9
TAATCTTCACTAGACCTAGATAAGGGAGAT	-1.18
GTGCTGGGATTACAGGCGTGAGCCACCGCG	-1.3
TATTAGAGTCCCTTTTTTAGACAAGGAAAA	-0.42
TGTTCTAGCTCGGGGGCCCTTCCCCCCTCT	2.68
TGACCACATGCCCTCAGTACAGGGCGTCCT	-0.511
ATATTCTCTCGTCACCTCCACCCACCCGTG	4.13
AGAAAGGCAGAAAACTCAGATTCCTATGGT	-1.08
GGACTTGGGACTTTCGAGTTAATGCTGGAG	3.2

Sequence	binding signal (log2 normalized intensity)
GTCACTCCCACCCTTCCTGTTATGTTTTTT	1.88
ATGTCTCCAGAAACCAACCTTTGATCATTC	5.75
GCCCACTCCTCCCTCAGGGATCTTTGCACT	3.3
AGGGTCAAAGGGTCAAGTTCAGATCCTGGC	5.03
GTCAAACTGGTTTCTTGTCTGCCCCAGGGC	2.47
TTTAGGCTGTCAGCCACCAAAGCAGCTAGC	-1.17
GTCAAGCAATGATCTTCATGAACTTCTGTC	1.37
CCACAAGGGTTTAAATCTGACTGCACTGCA	-1.23
TCACCAGCTAAGCTGTTACTCATTCCCAGG	-1.31
CCAAAGTCCATGCTATTAAGCACTAGAAAG	-1.3
ATTCTGCATTTTTCTTTCCTGTAAATAATT	0.347
AGGCAGAGAGGCTGCTCAGTTTAAGTCAAA	-1.26
TAAGCAGAGGATGGGAATTAGGGAGTAGGG	-1.4
GGCAATTGTGTTTGTCTTAGGGGGTCTGGT	0.75
CAGGGGAATGGAGACACACCTGCGGTGACT	-1.36
AACTTTTCCATGTCCAAAGGTCTTCATGAG	4.33
GTCAGAACTGTGGACTCGCTGCCTTTTATC	1.03
CCTACGCTACGCACCAGGCATACTCCTCCT	-1.27
AGATAAGACAAGCTCTGTTTGTTTTGTTAC	1.26
AAGCTGCTGCCAAGCGTCAGTCATACAGAG	-1.43
CCTTTCGGTGGGACTAAATTCTGCGGCGGA	-0.776
GAGTGCCCTTGCCGAGAGCGGCTCGTTGGT	-1
TTTGTATGGCAGGGGTTAACCTCTATTGAC	2.29
AATCTCCAACAAGGCAGGAGATTCCACATT	-1.27

Sequence	binding signal (log2 normalized intensity)
CCTGAGAGGCCAGTTTGACCTTTGCATTCT	8.31
TTGCCCACATTCACACAATCAGTGTGTTGA	0.225
TCTACCTTTGGCCTGGGGATTTACTAAAGT	0.709
CACACTGTTTGCGCAAACTATCTAAACAGA	-1.35
GTAACAAAGGAAAGAGCTAACATATACCAT	-1.15
AGTGAGCCAAGGTACCCTGGCTTGTAATTC	-0.844
CCCCCTCCTCACCCCACTTTGGTTCACCGC	4.2
CCCTATTTCCCTCTGTGCCCGAGCTGTCTT	1.43
TCCTGAAGCCCTTCTTCTGGAGCCTCAGTA	-1.37
GGTTTTTGTCAAAGATAGTTGTAGTTACAG	1.26
AGGCAAGGAATTTGGAATTCCCTGCAAGGA	-1.43
ATAGAGGAGTCAAGCAAACACACTTGCTCT	-1.43
GTGGGGACCTGGACTCCCAAGATGGATTGG	0.874
TGTGGGTGAGGCTGTGATGTTTGCCCATGA	0.65
CGTCTAAACAAACTCCCAGTCTGTTATCAG	-1.04
GTACAAACACATACCTTAAATAAGAGACTC	-1.37
AAAGTTCATCTGGGCTTTAGGTTTGGTGTT	1.8
TCAAGGGTCATTTGTTTTTACAGACAGGCA	1.61
GCCTGGCCAAGTTGAGGAGTTTGTACTTTA	3.71
GGGCGCTGTCCGCCGCCTCGTGGTGCTGAT	-1.26
CGCTGTAGAAAGTGGTTTCAAGGTGACCCC	6.38
AAGGTCAGGGGCAGGGTCGCGCGGGCTGCT	-1.31
TTAAAGGATATCATCAGTGCCATTCATTAG	-1.16
AAATACATTCTGAACCAATGCCACAGAAAA	-1.31

Sequence	binding signal (log2 normalized intensity)
GTCCCTGGGGACAGGGATTAAGTACCGCTC	-1
TGACATCCCTATGTTGTCCCTGCCCTTTGT	4.34
ATCTCTGTCCCTGATACCATTATCTCCAGC	-1.23
AGAGAAATGAGGCACAGTAACCTGACCCCC	5.88
AAGGTAAATATTGTCAGTGAGGAATGTGCA	0.658
GTGGGGGTGGAGGCAGCAGCTCCAATTAGG	-1.28
GGAGACCCATGGCAGAGGCTGTACTCCTCA	-1.34
GCTGGAAAGGCCACCACAAACCCTTCATCC	-1.35
GGCACAGGTCAAAAATGATGCCTGACTCAA	-1.35
CCTTTGAGGAGGCCTTTCCTGACCCCTCCT	4.78
AGAGCAGCTAGTAGGAGCGGGCTTAACTAG	-1.3
CATCATCTGTTTGTACGCGTCGAACTAGCT	-1.29
AGGGTCTGGTTCCAAAGTCTGCAGATTAAA	2.13
CTTAGAGATAATGGGGGAGCCACTGCAGCT	-1.3
ATCTCACAGATTAAGTCACGTGGAGATAAC	0.759
CAACTGGTATGTTAGATTAGTGTGCAGCTT	0.325
ATTCAGCATTGCTTGGGAGCAGTCCTTGGG	-0.959
AGAGGCACCAAGGCCGGAAAAGATTAGATT	-0.767
GAGAGAGAGAATAGCTCAGGTCCAAGGAAC	-1.23
GCACACTCGCCTGGCTCCCCACGTGGCAAT	-1.36
CTCCACCTGGAGGGACTTTGTCCCACAGGA	4.52

From paper PMC10726135
